Measured values: article PMC10668032
The other results are listed elsewhere or left out. At the low end of the ranking the order means little.

Target: SIX1-Q177R homeodomain (UniProt Q15475)
Test: universal protein binding microarray
Conditions: Universal all-10-mer PBM (8x60K, AMADID 030236), 300 nM GST-tagged protein, Alexa Fluor 488 anti-GST; buffer, salt, pH and temperature not stated; high values mean tight binding; most listed sequences are background and not binding sites; double strand, one strand shown

Sequence	binding signal [E-score]
GTTCAGGA	0.144
CTTTTACC	-0.0946
AATAATCG	-0.0864
CCGGGTCC	0.12
GGCCTTGA	-0.0493
AGGCTGAA	-0.0346
CTGGTCCC	-0.0616
CTAACGAC	-0.159
CTACCGGC	-0.0956
AAGTGTTA	0.393
TCGCAGAA	-0.0466
ACTAAGTA	-0.15
ATTCAGAA	-0.314
CGATCGGA	0.0184
GCACGTAC	0.00092
ATCGCCCC	0.121
ACAACCAC	-0.0534
TCCGCCGA	0.132
AGAAACAG	-0.16
ACCCAGCA	0.0937
GATAAGAC	-0.184
TACCTATA	0.129
ATAAAGCC	-0.256
CGAATACC	0.0724
CACCATCC	0.252

Sequence	binding signal [E-score]
GAGAACGC	-0.0345
ATTATCAG	-0.053
GCACAACA	0.156
AGTAGTGC	-0.0575
ACTAATTA	-0.0376
AGTCCTAC	0.0528
TACCGACA	0.166
GTCCGTTA	0.062
GGACAAGA	-0.0831
TAGTATCA	0.221
GAGTCTGA	-0.212
ACTGAGTG	0.177
ACGGCACA	0.0506
ACTAATCC	0.0475
CTGCAGAA	-0.162
CGACACAA	0.201
CACCCTCA	0.264
GACCCCAA	0.128
GGTAAATA	0.0192
AGCCGCAT	-0.162
ACGCTCGA	-0.004
AAGCAAAT	-0.201
AATCGTCC	-0.1
ACGTCTCT	-0.184
GGTTGGGA	-0.113

Sequence	binding signal [E-score]
CGAATAGC	-0.119
AGGACCCG	-0.0245
AGATACGG	-0.0698
GCGAATAA	-0.187
ACTTGACC	-0.0106
CCTTTATC	-0.0437
TCGAGAAA	-0.125
ATCGACAC	0.436
GACCCATC	0.0469
CAAAGTAG	-0.067
CACTCGGC	0.237
CATTTACA	0.267
TCCCTAAA	-0.0962
GAACCTTC	-0.0582
ATTGTTTA	-0.233
ACGCAAAC	-0.00923
AGCTACGA	-0.0562
CCGCTGGC	0.000735
ATCCCCTC	0.196
AACCGGTG	0.299
AAGGCTGC	-0.0775
CGCCGACG	-0.0974
CTTTGCTA	0.0142
GGTCTGCA	-0.0446
AATCCGCC	-0.206

Sequence	binding signal [E-score]
CGGTTGAC	-0.0908
AATTACGT	-0.0689
AGCTAGTG	0.0541
CCAGGCCA	0.00406
AATTGGTA	-0.0831
ACATCGAT	-0.00548
GTGAAGAA	-0.191
ATTAAGGC	-0.00568
CTCACTTA	0.00681
AGGATATA	-0.125
TTCGAGAA	-0.112
CATAAAGA	-0.228
AATAAATC	-0.26
AAAAGTCG	-0.107
CATGAAGG	-0.0771
CTAGCCAG	-0.3
GATGAAGC	-0.0285
GCCATAAC	-0.0991
CTCGCATA	0.0695
AAGGAATG	-0.341
TCATAAAA	-0.22
CACGCCAC	0.147
GATTTCGA	-0.347
ATTTTCAG	-0.0505
CGGACGCC	0.0275

Sequence	binding signal [E-score]
CTGTTCAC	0.012
ACAGTCGT	-0.168
TCAGTTAA	-0.141
CCTATATC	0.0423
ATCGATGC	0.0132
CTGGCCAG	-0.153
CATCTATC	-0.152
GATGACAA	-0.103
GATATCTA	-0.136
ACGACAAA	-0.193
CCTCGTAC	0.0049
GAGCGAAA	-0.0904
CGCTCTGC	-0.14
GCCGTTCA	-0.156
GCCGTTAC	-0.0494
TCACAAAA	-0.0854
GTCCGCTA	-0.0266
CCGGCCAA	-0.0692
ATAACTAG	-0.0059
TACGCCAA	0.0711
CTCACTCA	-0.185
TGAGCCCA	-0.0468
AGCGCGTG	0.126
GAGGTCGC	-0.119
CCTCAAAG	0.125

Sequence	binding signal [E-score]
ACAGGGTA	0.207
CTGGTCAC	-0.0176
ATACGAAT	-0.00302
TCCCGCCA	-0.0626
GGCCTAAA	-0.222
ATCAAATA	-0.0441
ATTGATTC	-0.0356
CTCGAAGC	-0.206
CGAAGTAG	0.018
GGTGCGTA	0.161
CTCGACGA	-0.162
ACATGCAC	0.0917
ATTCTTCG	-0.138
ATCGAAGA	-0.0101
AATCTGGG	-0.152
AATGCATG	-0.0402
AGATCAGC	-0.0988
CTAAGAAC	-0.105
ATACTCGA	0.0501
ATATAAAC	-0.206
AGACAGCA	-0.197
GAGGCCGA	-0.161
CGTCAACC	-0.0357
GCATGGGC	-0.163
CCAAAGGG	0.0504

Sequence	binding signal [E-score]
CCATGTAA	-0.167
CTACGGAC	0.00198
ATAAAACG	-0.0934
ACTAAGCG	-0.0449
AGATATAC	-0.0243
AACACTGG	0.373
AGATTATG	-0.0365
CCTGGGAC	0.0224
GGCAGATA	-0.0504
TATAGGCA	-0.223
ACGGTATG	-0.0684
GCTAATAC	0.0371
GGTATTTA	-0.0579
CCTGGCTC	-0.114
GGCTTCAC	-0.216
TAAAACTA	0.0316
GAGTTCCC	-0.0114
CGTCTGCC	-0.0793
CAACTTGA	-0.144
AAATAAAG	-0.139
CACATACC	0.0638
GCCAATTA	-0.222
GCATCAGC	-0.104
ATAGCAAA	-0.12
GTGCTTAA	0.0202

Sequence	binding signal [E-score]
ATATATCG	-0.169
CGATTCTC	-0.0426
GGCAGGAA	-0.0362
CTGGCACC	0.11
CATCCCCG	-0.0232
AAGCTCGT	-0.0677
AAGTTCGA	-0.0213
AGGCGGGG	0.159
AGTCGGTA	-0.139
GCATAGCC	-0.21
AGACATGA	0.0383
ATCTTCGC	-0.126
CTAATGTC	-0.0267
AATGTATC	-0.068
TATGACGA	0.00709
AGAAACAC	0.408
CTCCTAGA	-0.137
CAGCAGCC	-0.145
AGGGCAGC	-0.162
CAAGTACC	0.0928
AGAGCCGC	-0.224
ATCTAATC	-0.139
AAGATTGT	-0.202
CTCGCTAA	0.0527
ATAGCAAC	-0.202

Sequence	binding signal [E-score]
AAAAAACC	-0.0855
CCGGTGCC	0.0663
GGGTATAA	0.152
CATCGACC	-0.145
AATATAAG	-0.0508
CTCACGCC	0.0175
ATTTCAGA	-0.205
AGCGCGGA	-0.123
CCCTTGCG	0.126
GAGACAAC	0.152
AAAGATTG	-0.129
AAATGGTA	0.0115
CACACGGC	0.161
CTAAGCAC	0.0366
AGTTTAAT	-0.102
AACACGAA	0.305
CCATTCGC	-0.0445
CCCGAGGC	-0.0201
AACAACTC	-0.0385
GATTTCAA	-0.215
CCACCTGA	-0.0436
CTCTAACC	-0.0797
ATGCTTGC	-0.282
CCAATGGG	0.0599
AACTTATA	-0.109

Sequence	binding signal [E-score]
ACGCTTGA	0.0448
AATTACGC	0.0276
AGAACTAT	-0.321
ACCTCAAT	-0.172
ATTCACAC	0.348
CTGCTTGA	0.0612
TAACGGCA	-0.0758
CCACGAAC	-0.00927
CGACCTAA	-0.0178
GGTCAACC	-0.0551
CTTTTAAA	-0.189
TGGTTACA	0.139
GTCGCACA	0.0027
ATGCTAGC	-0.107
ACGCAGTC	-0.175
CCGATTGA	-0.0656
CCGGCAGA	-0.259
CGTTCCAG	-0.11
CCCCCCCC	0.188
ATACGAAC	-0.128
AAGAAGCA	-0.0616
ACTCGGTA	0.0668
GACGCGTC	-0.14
ATCCCAGC	-0.0105
ATAGGCCC	-0.154

Sequence	binding signal [E-score]
AAGCCTAA	-0.203
ACTTGCCG	-0.0248
ATGTGAAC	-0.0733
GCCGGCCC	-0.198
ATCAACAA	-0.00379
GTGATTTA	-0.0364
ACCACGCG	0.0189
GACTCCGC	0.254
CTAGGCCC	-0.113
AACCAACA	0.0313
AAACAGTC	-0.245
CGTTTTAA	-0.151
AGTTCAAA	-0.212
GTAAGCGA	-0.0281
ATGGATAA	0.0967
CCCCACAA	0.134
GCTCCTAA	-0.146
GTGTCATA	0.458
CTAGTAGC	-0.109
ATAACTAC	-0.00616
GATACGCC	0.126
CTATGCCA	-0.163
CACGCTAG	0.0298
CGTCCAAG	-0.195
TAAAGCAA	-0.108

Sequence	binding signal [E-score]
CCGGGAAA	-0.131
GTAATTAA	-0.0612
AGGCTTTC	-0.196
CGACGGAC	-0.0755
GGGACAAC	-0.16
GGTTGAGA	0.0273
CCGGAGAC	0.133
CCCTAAAG	0.062
ATTCCACA	0.0662
AACTTGGT	0.148
AAGCCCTT	-0.216
GGGCACGA	-0.0652
CAAGTCGC	-0.177
TCTGATCA	-0.148
GTGCCAAA	0.00531
AGGTGTGG	0.371
GGGTCTAC	0.111
CATTCTGA	-0.252
GTAGGTTA	0.0216
GACCGCAC	0.0605
CCTGTTCA	0.0899
GTTGTGAA	-0.0327
ACGTAACT	-0.000265
CCGAGTAC	0.189
GTCCCATA	-0.0453

Sequence	binding signal [E-score]
ATTCTCAG	-0.278
ACCTTAAA	-0.0918
CGCTTAAC	-0.0319
ACGTTTGC	-0.107
ACCAGACT	-0.0211
AATAGTAG	0.0292
CACGTCTG	0.0141
ACCCATCA	-0.0284
CTTAAGTA	-0.133
GAAACAGC	-0.187
CACCATGG	0.343
TGAGTTAA	-0.216
AGTGCGTG	0.245
CAAAGGCA	-0.0382
CCCACGGG	0.00181
ACGTGGGG	0.0512
CCAGCCCG	-0.0377
ATCGATGA	-0.0679
CGGCACTA	-0.00083
GGTTTTGA	0.0273
TACTGAGA	-0.0916
CTTTGTGC	0.0271
CAAGCGTC	0.0653
CGCTGCAG	-0.179
CTCCTGTC	-0.155

Sequence	binding signal [E-score]
CTGCCCAA	0.0619
CGTCCTAG	-0.0984
ATTCGCCG	-0.013
CCTGAAAC	-0.0258
ACGGTATA	0.0934
AGTCACGA	0.043
AAGCGGAC	-0.157
ATAAGTAG	-0.0228
CATCGTGC	0.0308
GCGACCCA	-0.0871
GATACGAC	0.0322
CAGGTCAC	0.0233
AAAACGAA	-0.0683
CGCTTGGA	0.103
GAACACTA	0.356
AATAATCT	-0.169
AGTGGCCG	-0.14
ATATAGAA	-0.122
CATCGTCA	-0.213
